Out of some 310,000 compounds screened, about 14,000 (4.5%) showed an effect of 50% or more. The effect is printed as a negative number. The list shows a part of the results.
The compounds below were run against human ether-à-go-go-related gene (hERG) potassium channel (human, UniProt Q12809) (assay: primary screen, population patch clamp on CHO cells stably expressing hERG).
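Further: peak tail current of the secondary pulse compared with the same well before compound.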

Sequence of human ether-à-go-go-related gene (hERG) potassium channel (Q12809 whole entry, looked up): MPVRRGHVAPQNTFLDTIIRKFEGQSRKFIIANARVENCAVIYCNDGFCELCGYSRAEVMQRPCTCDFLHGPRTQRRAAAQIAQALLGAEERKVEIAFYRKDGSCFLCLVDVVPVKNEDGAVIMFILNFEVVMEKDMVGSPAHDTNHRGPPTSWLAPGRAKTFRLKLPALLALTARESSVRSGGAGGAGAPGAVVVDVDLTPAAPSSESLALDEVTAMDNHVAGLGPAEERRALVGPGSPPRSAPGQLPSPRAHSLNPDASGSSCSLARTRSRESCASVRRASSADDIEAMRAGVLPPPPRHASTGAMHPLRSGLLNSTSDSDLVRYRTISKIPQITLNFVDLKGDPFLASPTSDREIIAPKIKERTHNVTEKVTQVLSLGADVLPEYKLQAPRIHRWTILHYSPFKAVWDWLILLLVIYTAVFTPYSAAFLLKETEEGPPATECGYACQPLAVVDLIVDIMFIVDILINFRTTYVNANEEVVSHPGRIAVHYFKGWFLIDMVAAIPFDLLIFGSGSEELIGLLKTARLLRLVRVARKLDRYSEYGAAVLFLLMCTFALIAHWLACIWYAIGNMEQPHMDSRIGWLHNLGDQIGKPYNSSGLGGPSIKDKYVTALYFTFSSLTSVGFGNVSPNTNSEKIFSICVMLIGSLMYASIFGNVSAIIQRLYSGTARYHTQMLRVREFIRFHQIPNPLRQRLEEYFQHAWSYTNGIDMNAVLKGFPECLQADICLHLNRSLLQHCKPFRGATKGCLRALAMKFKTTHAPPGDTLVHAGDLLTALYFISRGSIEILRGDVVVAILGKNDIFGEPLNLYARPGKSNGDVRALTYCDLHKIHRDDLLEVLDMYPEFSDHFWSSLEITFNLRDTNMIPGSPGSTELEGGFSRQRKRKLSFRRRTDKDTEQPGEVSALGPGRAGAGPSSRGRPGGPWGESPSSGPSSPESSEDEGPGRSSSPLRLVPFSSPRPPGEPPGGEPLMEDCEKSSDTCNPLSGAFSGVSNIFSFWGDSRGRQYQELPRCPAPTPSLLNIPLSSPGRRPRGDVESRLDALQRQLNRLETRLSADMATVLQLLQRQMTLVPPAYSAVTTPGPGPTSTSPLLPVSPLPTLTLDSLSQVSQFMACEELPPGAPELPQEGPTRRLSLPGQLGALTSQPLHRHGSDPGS

| Structure (SMILES) | hERG current change (%, negative = inhibition) at 10uM [%] |
| --- | --- |
| CCCC(NC(=O)C(C)NC(=O)CO/N=C1\C=C2CCC3C4CCC(C(C)=O)[C@@]4(C)CCC3[C@@]2(C)CC1)C(=O)O (stereo partly drawn) | 11.6 |
| Cn1c(Cc2cccc3ccccc23)nnc1SCC(=O)N1CCN(c2ccccc2)CC1 | -43.2 |
| CCc1cc([N+](=O)[O-])cc(CC)c1N | -6.21 |
| OCCOCCNc1ncnc2c1cnn2-c1ccc(Cl)cc1 | 9.06 |
| COc1ccc(NC(=O)c2ncn[nH]2)cc1 | 7.17 |
| Cc1c(NC2(C#N)CCCC2)c(=O)n(-c2ccccc2)n1C | 14 |
| COC(=O)c1cc(S(=O)(=O)N2CCCCC2)ccc1N1CCOCC1 | -48 |
| CC(Sc1ccc(Cl)cc1)C(=O)NNC(=O)c1ccncc1 (stereo not drawn) | -6.23 |
| COc1ccc(CCNC(=O)Cc2cccs2)cc1 | 19.8 |
| Cc1ccc(S(=O)(=O)N(Cc2cccc(C(F)(F)F)c2)C(=O)N2CCN(C)CC2)cc1 | 10.3 |
| N#Cc1nc(COc2ccccc2F)oc1NCCCn1ccnc1 | -42.5 |
| Cc1cccc(NC(=O)Nc2cccnc2)c1C | 9.88 |
| O=C(/C=C/c1ccccc1[N+](=O)[O-])Nc1ccc(S(=O)(=O)Nc2ncccn2)cc1 | 1.95 |
| CCc1nnc(NC(=O)c2cc(S(=O)(=O)N3CCCCC3)ccc2N2CCOCC2)s1 | -2.95 |
| N#Cc1ccccc1N/C=C/C(=O)c1ccc(Cl)cc1 | -11.1 |
| COc1cccc(N(CC(=O)NCCSc2ccccc2)S(C)(=O)=O)c1 | -6.04 |
| CCOc1ccc(Cl)cc1CSc1n[nH]c(CC)n1 | -4.9 |
| CC(CCc1ccccc1)NC(=O)C(=O)Nc1ccccc1 (stereo not drawn) | -0.607 |
| COCc1cc(=O)n2c(-c3ccccc3OC)n[nH]c2n1 | 4.45 |
| Cc1cc(C(=O)CSc2cccc[n+]2[O-])c(C)n1-c1ccc(OC(F)F)cc1 | -61.9 |
| COc1cccc(CC(=O)N2CCN(S(=O)(=O)c3ccc(Br)cc3)CC2)c1 | -41.2 |
| CCN(c1ccccc1)c1cc(C)nc2ncnn12 | 2.52 |
| Cc1ccc(CNC(=O)C2CCC(=O)N(C3CC3)C2)cc1 (stereo not drawn) | 22.6 |

| Structure (SMILES) | hERG current change (%, negative = inhibition) at 10uM [%] |
| --- | --- |
| Cc1cc(C)nc(NC(=NCCc2c[nH]c3ccccc23)NC(=O)Nc2ccc(Cl)c(Cl)c2)n1 | 17.9 |
| Cc1cc(N2CCN(C(=O)c3ccco3)CC2)n2nc(-c3cccc(F)c3)cc2n1 | -36.4 |
| CCOc1ccc(-n2cc(-c3ccccc3)c3c(=O)[nH]cnc32)cc1 | 17.2 |
| CCCCOc1ccc(C(=O)Nn2cnnc2)cc1 | -0.225 |
| O=c1[nH]nc(SCc2cc(Cl)ccc2Cl)c(=O)[nH]1 | -9.12 |
| O=C(COc1ccccc1[N+](=O)[O-])N(C1CCCCC1)C1CCS(=O)(=O)C1 (stereo not drawn) | 1.99 |
| COc1ccc(CN2CCC(n3nccc3NC(=O)c3ccc4c(c3)OCO4)CC2)cc1C | -80.6 |
| Cc1ccc2cc(C3CC(c4ccco4)=NN3S(=O)(=O)c3ccccc3)c(Cl)nc2c1 (stereo not drawn) | -2.11 |
| COc1ncnc(OC)c1S(=O)(=O)Nc1ccc(C(F)(F)F)cc1 | 7.74 |
| CCCCOc1ccc(C2CC(=O)NC2=O)cc1 (stereo not drawn) | 6.05 |
| CN(C)c1nc2c(c(=O)n(C)c(=O)n2C)n1CC(=O)c1cccs1 | -5.11 |
| CN1OC(COC(=O)c2ccc(Cl)cc2)CC1c1ccccc1 (stereo not drawn) | -4.56 |
| COC(=O)Nc1ccc(S(=O)(=O)NNC(=O)c2c(O)c3ccccc3[nH]c2=O)cc1 | 19.8 |
| COc1ccc(C(=O)C2CCCN(S(=O)(=O)N(C)C)C2)c(C)c1 (stereo not drawn) | 0.683 |
| COCCOC(=O)C1=C(C)OC(N)=C(C#N)C1c1ccco1 (stereo not drawn) | 10.3 |
| C/C=C/C=C\C(=O)Nc1cccc(C2=NOC3(C2)C[C@H](C(N)=O)N(C(=O)/C=C/C)C3)c1 (stereo partly drawn) | 10 |
| CC(=O)c1ccc(C(=O)N2CCCC(C(=O)c3ccc(Cl)cc3)C2)s1 (stereo not drawn) | -35.1 |
| O=C(O)C1CCCC2CN3CCc4c([nH]c5ccccc45)C3C(O)C21 (stereo not drawn) | 13.7 |
| O=C(CN1C(=O)CCSc2ccc(S(=O)(=O)N3CCOCC3)cc21)Nc1ccccc1Cl | -10.2 |
| CSCCC(NC(=O)c1ccccc1Cl)C(=O)N1CCN(C(C)=O)CC1 (stereo not drawn) | -26.9 |
| Cn1cccc1/C=N\NC(=O)c1cncc(Br)c1 | -9.78 |
| O=C(c1nc2nc(-c3ccccc3)cc(C(F)(F)F)n2n1)N1CCCCC1 | -14.6 |

From paper PMC4336329 (PLoS ONE, 2015)
